This is one part of the list.
Columns and labels:
Assay in all cases: glycan array binding signal (z-score within array); higher = stronger binding
Details in all cases: glycan notation: IUPAC condensed, linker removed
[1] = target: Gal(b1-4)GlcNAc(b1-2)Man(a1-6)[Man(a1-3)]Man(b1-4)GlcNAc(b1-4)GlcNAc
How it was run: (§1)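 From the Consortium for Functional Glycomics database, 3228 arrays were curated, keeping only those whose protein sequence was available. Binding is given as a within-array Z-score averaged across arrays sharing a protein sequence and across linkers. Negative Z-scores can be read as non-binding.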

[2] = target: Gal(b1-4)GlcNAc(b1-2)[Gal(b1-4)GlcNAc(b1-4)]Man(a1-3)[Gal(b1-4)GlcNAc(b1-2)Man(a1-6)]Man(b1-4)GlcNAc(b1-4)GlcNAc
How it was run: as §1

[3] = target: Gal(b1-4)GlcNAc(b1-2)[Gal(b1-4)GlcNAc(b1-4)]Man(a1-3)[Gal(b1-4)GlcNAc(b1-2)[Gal(b1-4)GlcNAc(b1-6)]Man(a1-6)]Man(b1-4)GlcNAc(b1-4)GlcNAc
How it was run: as §1

[4] = target: Gal(b1-4)GlcNAc(b1-2)[Gal(b1-4)GlcNAc(b1-4)]Man(a1-3)[GlcNAc(b1-4)][Gal(b1-4)GlcNAc(b1-2)Man(a1-6)]Man(b1-4)GlcNAc(b1-4)GlcNAc
How it was run: as §1

[5] = target: Gal(b1-4)GlcNAc(b1-2)[Gal(b1-4)GlcNAc(b1-4)]Man(a1-3)[GlcNAc(b1-4)][Gal(b1-4)GlcNAc(b1-2)[Gal(b1-4)GlcNAc(b1-6)]Man(a1-6)]Man(b1-4)GlcNAc(b1-4)GlcNAc
How it was run: as §1

[6] = target: Gal(b1-4)GlcNAc(b1-2)[Gal(b1-4)GlcNAc(b1-6)]Man(a1-6)[Gal(b1-4)GlcNAc(b1-2)Man(a1-3)]Man(b1-4)GlcNAc(b1-4)GlcNAc
How it was run: as §1

[7] = target: Gal(b1-4)GlcNAc(b1-2)[Gal(b1-4)GlcNAc(b1-6)]Man(a1-6)[Gal(b1-4)GlcNAc(b1-2)Man(a1-3)]Man(b1-4)GlcNAc(b1-4)[Fuc(a1-6)]GlcNAc
How it was run: as §1

[8] = target: Gal(b1-4)GlcNAc(b1-2)[Gal(b1-4)GlcNAc(b1-6)]Man(a1-6)[GlcNAc(b1-4)][Gal(b1-4)GlcNAc(b1-2)Man(a1-3)]Man(b1-4)GlcNAc(b1-4)GlcNAc
How it was run: as §1

[9] = target: Gal(b1-4)GlcNAc(b1-2)[Gal(b1-4)GlcNAc(b1-6)]Man(a1-6)[GlcNAc(b1-4)][Gal(b1-4)GlcNAc(b1-2)[Gal(b1-4)GlcNAc(b1-4)]Man(a1-3)]Man(b1-4)GlcNAc(b1-4)[Fuc(a1-6)]GlcNAc
How it was run: as §1

[10] = target: Gal(b1-4)GlcNAc(b1-3)Gal(b1-3)GalNAc
How it was run: as §1

[11] = target: Gal(b1-4)GlcNAc(b1-3)Gal(b1-3)GlcNAc
How it was run: as §1

[12] = target: Gal(b1-4)GlcNAc(b1-3)Gal(b1-4)Glc
How it was run: as §1

[13] = target: Gal(b1-4)GlcNAc(b1-3)Gal(b1-4)GlcNAc
How it was run: as §1

[14] = target: Gal(b1-4)GlcNAc(b1-3)Gal(b1-4)GlcNAc(b1-2)Man(a1-3)[Gal(b1-4)GlcNAc(b1-3)Gal(b1-4)GlcNAc(b1-2)Man(a1-6)]Man(b1-4)GlcNAc(b1-4)GlcNAc
How it was run: as §1

[15] = target: Gal(b1-4)GlcNAc(b1-3)Gal(b1-4)GlcNAc(b1-2)Man(a1-3)[Gal(b1-4)GlcNAc(b1-3)Gal(b1-4)GlcNAc(b1-2)Man(a1-6)]Man(b1-4)GlcNAc(b1-4)[Fuc(a1-6)]GlcNAc
How it was run: as §1

[16] = target: Gal(b1-4)GlcNAc(b1-3)Gal(b1-4)GlcNAc(b1-2)[Gal(b1-4)GlcNAc(b1-3)Gal(b1-4)GlcNAc(b1-6)]Man(a1-6)[Gal(b1-4)GlcNAc(b1-3)Gal(b1-4)GlcNAc(b1-2)Man(a1-3)]Man(b1-4)GlcNAc(b1-4)GlcNAc
How it was run: as §1

[17] = target: Gal(b1-4)GlcNAc(b1-3)Gal(b1-4)GlcNAc(b1-2)[Gal(b1-4)GlcNAc(b1-3)Gal(b1-4)GlcNAc(b1-6)]Man(a1-6)[Gal(b1-4)GlcNAc(b1-3)Gal(b1-4)GlcNAc(b1-2)Man(a1-3)]Man(b1-4)GlcNAc(b1-4)[Fuc(a1-6)]GlcNAc
How it was run: as §1

[18] = target: Gal(b1-4)GlcNAc(b1-3)Gal(b1-4)GlcNAc(b1-3)Gal(b1-4)GlcNAc
How it was run: as §1

[19] = target: Gal(b1-4)GlcNAc(b1-3)Gal(b1-4)GlcNAc(b1-3)Gal(b1-4)GlcNAc(b1-2)Man(a1-3)[Gal(b1-4)GlcNAc(b1-3)Gal(b1-4)GlcNAc(b1-3)Gal(b1-4)GlcNAc(b1-2)Man(a1-6)]Man(b1-4)GlcNAc(b1-4)GlcNAc
How it was run: as §1

[20] = target: Gal(b1-4)GlcNAc(b1-3)Gal(b1-4)GlcNAc(b1-3)Gal(b1-4)GlcNAc(b1-2)Man(a1-3)[Gal(b1-4)GlcNAc(b1-3)Gal(b1-4)GlcNAc(b1-3)Gal(b1-4)GlcNAc(b1-2)Man(a1-6)]Man(b1-4)GlcNAc(b1-4)[Fuc(a1-6)]GlcNAc
How it was run: as §1

[21] = target: Gal(b1-4)GlcNAc(b1-3)Gal(b1-4)GlcNAc(b1-3)Gal(b1-4)GlcNAc(b1-2)[Gal(b1-4)GlcNAc(b1-3)Gal(b1-4)GlcNAc(b1-3)Gal(b1-4)GlcNAc(b1-6)]Man(a1-6)[Gal(b1-4)GlcNAc(b1-3)Gal(b1-4)GlcNAc(b1-3)Gal(b1-4)GlcNAc(b1-2)Man(a1-3)]Man(b1-4)GlcNAc(b1-4)[Fuc(a1-6)]GlcNAc
How it was run: as §1

[22] = target: Gal(b1-4)GlcNAc(b1-3)Gal(b1-4)GlcNAc(b1-3)Gal(b1-4)GlcNAc(b1-3)Gal(b1-4)GlcNAc(b1-2)Man(a1-3)[Gal(b1-4)GlcNAc(b1-3)Gal(b1-4)GlcNAc(b1-3)Gal(b1-4)GlcNAc(b1-3)Gal(b1-4)GlcNAc(b1-2)Man(a1-6)]Man(b1-4)GlcNAc(b1-4)GlcNAc
How it was run: as §1

B1: AidA (Burkholderia cenocepacia) (protein)
chain: MSRVTDVLVSFDTETILKKYPNPSKNPAAPTLIDWRYVYMVTNQDNVISGQAGGELDLKAQVGDLIRWRETSLSLGFENQVVFYKFIGNVGNDLISTPTPRVAEASIPVPNTSKPEVPTCQKVANYYWSSECLKVGRVTYHFQFQIIDRNCQSQGCFSWDPFISIHN
glycan array binding signal (z-score) [1]: 0.226
glycan array binding signal (z-score) [2]: -0.348
glycan array binding signal (z-score) [3]: -0.099
glycan array binding signal (z-score) [4]: 0.232
glycan array binding signal (z-score) [5]: -0.107
glycan array binding signal (z-score) [6]: -0.177
glycan array binding signal (z-score) [7]: 0.594
glycan array binding signal (z-score) [8]: -0.373
glycan array binding signal (z-score) [9]: -0.272
glycan array binding signal (z-score) [10]: -0.284
glycan array binding signal (z-score) [11]: -0.217
glycan array binding signal (z-score) [12]: -0.342
glycan array binding signal (z-score) [13]: -0.768
glycan array binding signal (z-score) [14]: 0.201
glycan array binding signal (z-score) [15]: 0.036
glycan array binding signal (z-score) [16]: -0.138
glycan array binding signal (z-score) [17]: -0.526
glycan array binding signal (z-score) [18]: -0.034
glycan array binding signal (z-score) [19]: 0.838
glycan array binding signal (z-score) [20]: 1.44
glycan array binding signal (z-score) [21]: 0.753
glycan array binding signal (z-score) [22]: 0.459

Reference: the supplement of paper PMC8728848
